Laboratory results reported in the supplement of paper PMC3334620.
The full ranking holds about 33,000 sequences; the median of “E-score (-0.5 to 0.5)” is about -0.011, and the highest 2% start at about 0.28. This is one part of the list.

Molecular target: T1, Gcr1 (UniProt P07261)
T1 sequence: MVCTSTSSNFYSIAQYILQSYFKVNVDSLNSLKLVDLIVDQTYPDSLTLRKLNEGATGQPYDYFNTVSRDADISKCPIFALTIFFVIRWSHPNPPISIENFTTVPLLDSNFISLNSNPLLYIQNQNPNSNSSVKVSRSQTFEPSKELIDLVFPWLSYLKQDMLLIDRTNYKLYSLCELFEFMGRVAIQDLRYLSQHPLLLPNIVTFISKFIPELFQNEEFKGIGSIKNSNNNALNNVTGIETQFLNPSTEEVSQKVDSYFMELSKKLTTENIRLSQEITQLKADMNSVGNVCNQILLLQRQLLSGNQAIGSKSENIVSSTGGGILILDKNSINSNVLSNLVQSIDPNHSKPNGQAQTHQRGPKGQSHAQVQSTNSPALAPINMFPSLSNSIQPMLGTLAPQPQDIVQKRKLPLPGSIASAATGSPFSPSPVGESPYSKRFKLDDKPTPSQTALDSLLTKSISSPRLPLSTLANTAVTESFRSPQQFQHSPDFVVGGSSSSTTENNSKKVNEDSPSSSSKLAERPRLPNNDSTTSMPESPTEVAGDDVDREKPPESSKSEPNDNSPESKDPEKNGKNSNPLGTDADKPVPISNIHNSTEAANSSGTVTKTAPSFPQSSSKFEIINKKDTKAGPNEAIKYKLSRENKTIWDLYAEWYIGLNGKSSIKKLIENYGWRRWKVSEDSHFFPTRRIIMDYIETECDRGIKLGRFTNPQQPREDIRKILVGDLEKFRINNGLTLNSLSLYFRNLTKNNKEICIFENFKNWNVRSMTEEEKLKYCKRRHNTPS
Assay: PBM E-score (8-mer binding enrichment) (E-score (-0.5 to 0.5)); higher = stronger / more preferred TF binding; most listed sequences are background and not binding sites
Conditions: protein concentration: 100 nM; construct: GST-full length
In short: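 Full-length yeast transcription factors or their DNA-binding domains, GST-tagged and expressed with PURExpress, were applied at about 100-200 nM to universal all-10-mer Agilent arrays. These arrays had been made double-stranded by primer extension on fresh or once-stripped slides. Detection used fluorescent anti-GST, normalisation used masliner, and E-scores for ungapped eight-base words pooled with reverse complements came from the Universal PBM Analysis Suite.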

Sequence | PBM E-score
AGAATCGG | -0.0952
CAAAAGAC | 0.0635
TAAAGTCA | -0.0842
ATGTAGCA | -0.048
AAGCAAGG | -0.155
AACCTCAG | 0.0506
TACCAGGA | 0.19
CTAGAGAA | -0.0591
CTTAGAGA | -0.0742
CGACTCAC | -0.161
CATATCCC | -0.108
GGAAGCAC | 0.188
AGGGGAAT | 0.341
CGTACCTA | -0.0466
TATTGCAA | 0.0581
CGCAAAAG | -0.215
AAAGAGGA | 0.00073
GTATATCA | 0.178
GCCGAGCA | -0.124
AAATTAGC | 0.261
CGGTCAGC | -0.104
CACCTCCC | -0.0996
AAACAACT | 0.0884
GGAAGGGA | -0.135
ACGGCCGC | -0.0654

Sequence | PBM E-score
AGAAGGGA | -0.273
GGAGGTTA | -0.0486
AATGATAC | -0.0759
CACTTCAA | 0.187
CGAGTACC | 0.0157
AGGCGCAC | -0.0868
TTCTGAAA | 0.151
ATACTGTA | -0.0195
CATTTGCC | -0.0181
ACAACCGG | 0.182
GACGTCTA | 0.0862
AGGGTGAA | -0.202
CATATTCA | 0.0277
CGGCATGA | -0.0581
CTTTACCC | -0.105
CCTGAAAC | 0.0634
CACTGATC | -0.142
CGCCCTTA | 0.0154
CCGGACGG | -0.116
CTCTAGGC | 0.102
CTGCGTGC | -0.197
CCCTGCTC | -0.123
GGAGACCA | 0.156
GGTGACCA | 0.0748
CGACCCTA | -0.22

Sequence | PBM E-score
CTTAAATA | 0.223
AGTCGTAT | -0.0273
GCCAGTTA | 0.105
GGCGGACA | -0.0864
AATTGCCG | -0.0754
ACTCCCCG | -0.0222
AAGGGGCT | 0.0171
CAAGTGTG | -0.119
GTGCTTGA | 0.0543
CCCACGCG | -0.12
CGAACACG | 0.00554
GCGTATCC | 0.244
ACCCATTA | 0.224
CGGTACGA | -0.11
GGCTTGGA | -0.0903
CCGATGCG | -0.128
AGTTGGCG | 0.0665
GATTATCA | -0.0147
CGACGTCG | -0.119
GACAGAGA | -0.246
GATGGTAA | -0.192
AATAAAAA | 0.0451
GAGTTAGA | 0.00485
CGAAGTCG | 0.0175
ACCATAGG | 0.00792

Sequence | PBM E-score
CGCGTTTA | 0.0853
AAGGAGAC | -0.0163
CATGGGAA | 0.101
CTTGTGGA | 0.267
ATGTACGG | -0.07
CTAATTAC | -0.015
GGTAATAA | 0.168
AGCAATAT | -0.0424
AGAGTCAA | 0.0159
CGAAGCCG | 0.285
ACATGCTA | 0.0274
AGGTAGCA | -0.1
ATCCCGTC | 0.181
CAGTCCTC | -0.295
AAGGGGGT | -0.289
AATGGTCG | -0.107
ACGGTACA | 0.0448
ACTTTGAG | 0.0468
AGTAAATG | -0.0661
AACGATCC | -0.143
CAAGCCGC | -0.00721
CCCTGCCC | -0.184
GCTTTGTA | 0.00523
ATTGCATG | -0.0212
GCGCCGTA | 0.0769

Sequence | PBM E-score
CACTGATG | 0.0627
ATAAAGAG | -0.129
AAACGTGT | -0.191
GACGGCCA | -0.0562
CAAAGGAG | 0.128
CATGACGA | 0.0824
TCATGAGA | -0.289
GAAGTTAC | 0.188
GATTGTAC | -0.131
CCAATACA | 0.0174
ATCGCGAG | 0.0335
AGTAGCAG | 0.156
CAAGCCCG | -0.247
ATAAGTCA | 0.0598
TCTGAGAA | -0.0348
ACTTATAA | 0.091
AGATGGCG | -0.00188
GTATTTTA | 0.149
ACCTGTGA | 0.0203
AGGTGTGG | 0.126
GTCTAGGA | 0.0291
GGGAGCAC | -0.0978
ATCATTCG | 0.122
TACCAGCA | 0.0312
CACCATAA | 0.0402

Sequence | PBM E-score
GATATAGC | -0.118
AAGTCCGA | -0.00311
TAAAGGGA | -0.0823
AGATACGG | 0.0264
AACTGGTG | 0.0802
AAGCTGGA | 0.0849
CACCATCA | -0.0258
TAGAGGCA | 0.219
GTTTCTCA | 0.0213
CAAGCCCA | -0.244
CAATCGAA | -0.121
CCAGGAGC | 0.264
GACACTCC | -0.241
GGGGAAAC | 0.0278
GTATTGAC | -0.015
ACGACCGA | -0.119
ATCCAATG | 0.0722
CTCATGGA | 0.0255
GGGATGTA | -0.0223
AAGAGACC | -0.0918
CTGCGATA | -0.167
CCTTTTAA | -0.0268
AAGAGCCA | -0.0177
GACACATC | -0.072
CAGCTAAA | 0.0206

Sequence | PBM E-score
CAACATGA | 0.047
AGCAGTAT | -0.197
GGGGAGAC | 0.0349
AACGTATT | 0.0318
GGAAACCC | 0.106
GCGTTAAA | 0.0171
AAACCAAT | 0.161
GCATATCA | -0.00628
GCCTTTCC | -0.231
CCTTTCCG | -0.0125
AACTCAGA | -0.0497
AAAATGCA | 0.0508
ATCCACTA | 0.369
CTCCCGAA | 0.145
CACAGTGC | -0.145
CTTCACGC | 0.0124
CCAAAATC | 0.136
GCGCCACA | 0.0894
AAATTTTA | 0.126
AGACGCCC | 0.259
CCGATTGA | -0.0126
CCATGGCG | 0.142
